Results reported in the RNAGym collection of RNA variant scans (doi:10.1093/nar/gkz1192).
The source gives no read counts; variants with many changes may rest on few reads.

B1: CPEB3 Ribozyme (parent)
chain: UAACAGGGGGCCACAGCAGAAGCGUUCACGUCGCAGCCCCUGUCAGAUUCUGGUGAAUCUGCGAAUUCUGCUGUAUAUCUC

Variants of: B1
Assay: self-cleavage, relative activity (ratio to wild type); higher = more cleavage; in vitro, sequencing
Method in brief: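 CPEB3 self-cleaving ribozyme mutant libraries were made by rounds of error-prone PCR, barcoded, and transcribed in vitro with T7 RNA polymerase for 5 hours at 37°C. Cleavage occurred during transcription and a 15 min DNase I step before EDTA stop. RNAs were reverse transcribed with template switching and Illumina-sequenced, with DNA sequencing mapping barcodes to variants. Relative activity is the variant's cleaved/total read fraction divided by wild type's (minimum 5 reads), averaged across three batches.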

| Variant | self-cleavage |
| --- | --- |
| G6A G9C C40U C44U A47G U48C U67C | 0.05 |
| G6A G16A A45U A57U | 0.2 |
| G6C G9C G36U C40U U66C | 0.12 |
| G6A U69C A77G | 0.19 |
| G6A U54C A65G | 0.11 |
| G6C G30A A45U G73U | 0.31 |
| G6A U25C U60C C62A A65G | 0.19 |
| G6A U25G C38A U72A | 0.15 |
| G6A U51C G52U A64G A77G | 0.09 |
| G6A U41A A45G A47G U72C U80C | 0.05 |
| G6A U26C C39U | 0.28 |
| G6A U26G U51A | 0.19 |
| G6A U41A U80C | 0.09 |
| G6C G53C U60C | 0.07 |
| G6A U48C U76C | 0.48 |
| G6C C23U U67C | 0.12 |
| G6C G10U U25C A35U U49A | 0.05 |
| G6C A18G U31C U41C A65G U72A U80A | 0.04 |
| G6A U25C U26C A47G A57G U58A A77G | 0.06 |
| G6A U25C U31A A47G C50A U60C | 0.05 |
| G6A G10A G19A G46A U51G U74C | 0.04 |
| G6A G24A C27A U49C | 0.25 |
| G6A U25C U41A C44U G61A U67C | 0.05 |
| G6C A28G U41C U58C U67C | 0.07 |

| Variant | self-cleavage |
| --- | --- |
| G6A U43A U48C | 0.39 |
| G6A U25G G52U U78A | 0.05 |
| G6A U43A U69A U80A | 0.08 |
| G6A U49A U72A A77U U80C | 0 |
| G6A G24A G46A A57G U74A | 0.13 |
| G6U A15U C29U A45G U58A A75G | 0.04 |
| G6A U48C U72C | 0.16 |
| G6C A45G U60A A64U | 0.11 |
| G6C A15C C40U U54C | 0.07 |
| G6A U60A U69C | 0.08 |
| G6A U43A U67A | 0.05 |
| G6C U72G G73C U80C | 0.25 |
| G6A U49C U60C | 0.18 |
| G6A U26C U43C A75G U78C | 0.08 |
| G6A G9U C29U | 0.29 |
| G6A U43A A65G U78C | 0.04 |
| G6U A15G U31C A65G U69G U78C | 0.06 |
| G6A U41C A45G U48A | 0.31 |
| G6A U43C G53A A75G | 0.16 |
| G6A G36C A45U | 0.28 |
| G6A U31A A57G U69A | 0.1 |
| G6C G30A A45U U66C C79A | 0.21 |
| G6A G9A U31A U43A A45C U51C A64G | 0.04 |
| G6U A18U A35C U54C U58C | 0.08 |

| Variant | self-cleavage |
| --- | --- |
| G6A U69A U78C | 0.14 |
| G6U A15C A21G C27A G33U | 0.12 |
| G6A U43A G52U A56G U67A U76A | 0.24 |
| G6A G53C U60A | 0.21 |
| G6A U54C C59G U72G | 0.05 |
| G6A U41A A64G | 0.08 |
| G6U A13G A20G U31A U51A U72A | 0.04 |
| G6A U41A A45G U72A | 0.07 |
| G6A U54C U74G A75U | 0.5 |
| G6U A15G U41C U69A U80C | 0.14 |
| G6A U54C G70A | 0.16 |
| G6A U67A A75U | 0.18 |
| G6A U41C U66A | 0.14 |
| G6A G22C A45U G55C A56G A75G U80C | 0.04 |
| G6U A13G A47G U51C | 0.06 |
| G6U A15U A21G A35G C40U U49C A65C | 0.06 |
| G6A G16U U69C U76C | 0.09 |
| G6C U26C A57U | 0.33 |
| G6U A15G C17G C29U U69C | 0.05 |
| G6A U26C G42A A56G U60A | 0.06 |
| G6C G9U A18G C40U U49G U66C U78A | 0.04 |
| G6C A13G U31C C38A U48C | 0.45 |
| G6C U25C U69C U80C | 0.09 |
| G6A U41C U60C A64G U69C | 0.04 |

| Variant | self-cleavage |
| --- | --- |
| G6A U26G U60A U67C G70A | 0.17 |
| G6C G22A G52A A64U | 0.17 |
| G6C C12U U43C A75U | 0.25 |
| G6C A35U U43C U58C U60A | 0.05 |
| G6U A15G A18G U72C | 0.12 |
| G6A U41A U60C | 0.08 |
| G6C U25C C32U U54C | 0.23 |
| G6A U41C U66C U67C | 0.18 |
| G6A U26C A35G C37U U48C U54C U72A | 0.05 |
| G6U A13G A35G | 0.37 |
| G6A U25A A28U U31A U43C | 0.23 |
| G6A U25C G33A A35G A56G A75U | 0.28 |
| G6C U25C U60C | 0.35 |
| G6A G10A A18U U26C U48A | 0.06 |
| G6A G16A A45U | 0.17 |
| G6A U26C U43C A47U G53U U54C U80A | 0.19 |
| G6A G10A C23G | 0.08 |
| G6A U26A U54A | 0.08 |
| G6A G10A A21G A28C U31C U69C U72C | 0.06 |
| G6A G36C U41A A45G G55A U69C | 0.18 |
| G6A G9A G10C U31C U54A | 0.07 |
| G6A G33C G55U C62G U72C A75G U80C | 0.03 |
| G6C A21U U26C C32U U41C U72C | 0.04 |
| G6A U41A U43C A45G A56G A57G U69A | 0.06 |

| Variant | self-cleavage |
| --- | --- |
| G6C U43C A56G A64G U69A | 0.31 |
| G6A G30U A45C U51A U60C | 0.13 |
| G6A G9A C29U A56U A65G U66A U78C | 0.05 |
| G6A G9U A15G | 0.46 |
| G6A U31A C62A U80C | 0.06 |
| G6A G10A C23A A64G U69A U72C U80C | 0.04 |
| G6U A13U A18G A20G U25C U43C | 0.05 |
| G6A U25A U69G | 0.06 |
| G6A G9U A15G G33U U49C U54C U60G | 0.06 |
| G6A U25C U26A G30C C37U A56U | 0.07 |
| G6C U49C U51C U60C U72C | 0.08 |
| G6A G24U A56G | 0.12 |
| G6A U31C U43A A57G A64G U66C | 0.07 |
| G6A U31A U41A | 0.2 |
| G6A U25C A35U U54C | 0.05 |
| G6U A15U U54A | 0.42 |
| G6A U41C U49C U78C U80C | 0.09 |
| G6A U31C U43C C50A U69A | 0.04 |
| G6U A13G U51C U72A | 0.14 |
| G6A U69A U80C | 0.08 |
| G6A U74C U76A | 0.66 |
| G6C G30A U67C U74A | 0.15 |
| G6A U25C A28C | 0.1 |
| G6U A13G C32U U49C G63A U67C U72A | 0.05 |

| Variant | self-cleavage |
| --- | --- |
| G6A U41C A45G | 0.22 |
| G6A U26C U74A U78C | 0.05 |
| G6C G24A U49C U67C | 0.06 |
| G6A G9A A45G U78C | 0.05 |
| G6A U41A A77G | 0.41 |
| G6A U41C A47G | 0.35 |
| G6C A13G C32A U67C | 0.24 |
| G6A U25C C37U C40G U80A | 0.05 |
| G6A G16U A18U A21G U51C A77C | 0.04 |
| G6A U54G G63C | 0.3 |
| G6U A13G U80C | 0.47 |
| G6A U26A U31C U60C U72C | 0.06 |
| G6C A20G U25C C29U U60C | 0.05 |
| G6C U51C U69G | 0.1 |
| G6U A13G U60A | 0.38 |
| G6C A20U A21G U41A U43C A47G A57G | 0.03 |
| G6A G33A A75U | 0.29 |
| G6A G9C A18G U26G U43C U69C | 0.04 |
| G6A U41C G53U U67A U74C | 0.22 |
| G6C U31C C32A A35G | 0.31 |
| G6A G10C A15G A18U A56U U69C | 0.05 |
| G6A U48C U60C | 0.19 |
| G6A U26C U31C U43C U49C U51A U72C | 0.08 |
| G6A G10A G24A A45G | 0.06 |

| Variant | self-cleavage |
| --- | --- |
| G6A U26C U78C | 0.51 |
| G6A G10A A57G U58A | 0.17 |
| G6U A15U G24A U80C | 0.39 |
| G6A U66C U67A | 0.2 |
| G6C U66C U69C U72C | 0.06 |
| G6A U54C U58C | 0.05 |
| G6A U26C U43C A47U G53U U54C A57G | 0.13 |
| G6A U25C A35G | 0.3 |
| G6A G9A U41A | 0.34 |
| G6A G16C U51A U54A U80C | 0.08 |
| G6U A15G C39U U69C | 0.1 |
| G6A U26C G61A U67C | 0.11 |
| G6C A13G U25A U41C U66C | 0.27 |
| G6A G10A A35G | 0.65 |
| G6A G46A A56U U67A | 0.07 |
| G6A G33U A57U U67A | 0.07 |
| G6A G36C A57G U74A | 0.05 |
| G6C A28G A56U A57G U72C | 0.13 |
| G6A U58A U72A | 0.13 |
| G6C A13U U72C | 0.53 |
| G6C A15G U51C U72C | 0.13 |
| G6A G9A U43G A75G | 0.04 |
| G6A G16U U25C C34A U43C U69A | 0.04 |
